Test results as given in PubChem BioAssay AID720536 (National Center for Advancing Translational Sciences (NCATS), 2013).
The campaign covered roughly 1,600 compounds. About 650 (41%) were called active. So high a share suggests a set chosen from earlier hits. The inconclusive results got no clear call from the source; some entries with a clear call stand among them for comparison. Calls come from the whole dose curve; as a rule, active = well fitted inhibition curve with a large enough effect; inconclusive = small, poorly fitted or top-dose-only effect; inactive = no such curve, though single readings can be large or run the other way. No potency is given beside an inconclusive call; the fits are too rough.

experiment: qHTS for Inhibitors of TGF-b: CCL64 Cells Orthogonal Assay for Cherry Picks; settings: CCL64 CAGA-GFP reporter, TGF-b stimulated, GFP fluorescence, 18 h; activity, negative = inhibition: at 46.1 µM (top of the series); note: nearly all actives have a fitted effect of over 65% in size;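 for activity, negative = inhibition: 0% = stimulated DMSO wells and full inhibition = unstimulated wells without TGF-beta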
In short: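 Readout was total-well GFP fluorescence from summed single-cell values after 18 h TGF-beta stimulation (500 pg/mL) of CCL64 CAGA-GFP cells in 1% FBS, compounds added 2 h after plating. Normalized to unstimulated and stimulated-DMSO wells; curves classified by fit quality and efficacy.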
Potency is the fitted concentration of half-maximal effect; tags give direction and shape of the fitted curve.

| Compound | activity, negative = inhibition | Potency |
| --- | --- | --- |
| O=C(NC(=S)Nc1ccc([N+](=O)[O-])cc1O)C1CCCCC1 | inactive: 19.3% | – |
| CCN(CC)c1ccc(Nc2nc(N3CCOCC3)c3ccccc3n2)cc1 | – | inconclusive [inhibitor, single point] |
| COc1cccc(CNc2nc3cc(-c4ccsc4)sc3c(=O)n2C)c1OC | – | inconclusive [inhibitor, single point] |
| C[C@H](CO)N1C[C@H](C)[C@@H](CN(C)C(=O)Nc2ccc(C(F)(F)F)cc2)Oc2ccc(NS(=O)(=O)c3ccccc3)cc2C1=O | – | inconclusive [inhibitor, single point] |
| C=CCC[C@@H](Cc1ccc(F)cc1)C(=O)OC[C@@H](NC(=O)[C@@H](CC=C)CC(=O)N(CCO)Cc1ccccc1)c1ccccc1 | – | inconclusive [inhibitor, single point] |
| COc1ccc(S(=O)(=O)N2CCCCCC2)cc1C(=O)N(C)Cc1ccc(Cl)cc1Cl | – | inconclusive [inhibitor, single point] |
| Cc1ccc(S(=O)(=O)N2CC=C(c3ccc(F)cc3)CC2)cc1 | inactive: 0.501% | – |
| CSc1cccc(NC(=O)CCCOc2ccc(Cl)cc2C)c1 | inactive: 15.9% | – |
| Cc1ccc(Nc2nc(-c3ccncc3)nc3ccccc23)cc1 | inactive: -8.91% | – |
| COc1ccccc1NS(=O)(=O)c1cc(NC(=O)Nc2ccccc2)ccc1N1CCCCC1 | – | inconclusive [inhibitor, partial curve, poor fit] |
| Nc1cc2[nH]c(=O)c3ccccc3c2cc1Br | inactive: 7.08% | – |
| Cc1cc(C)c(-c2csc(NC(=O)C3=NN(c4ccccc4)C(=O)CC3)n2)c(C)c1 | inactive: -1.03% | – |
| COCCN(C(=O)COC(=O)c1ccccc1Nc1ccccc1)c1c(N)n(Cc2ccccc2)c(=O)[nH]c1=O | – | active: 1.64 µM |
| O=C1NC[C@H](c2ccccc2)OC(=O)[C@@H](Cc2ccc(F)cc2)CC/C=C/C[C@H]1CC(=O)N(CCO)Cc1ccccc1 | – | inconclusive [inhibitor, single point] |
| Cc1ccccc1C(=O)c1c[nH]c(C(=O)N2CCN(c3ccccc3F)CC2)c1 | – | inconclusive [inhibitor, single point] |
| Fc1cccc(CCN2C(=S)NC[C@@H]2CC2CCCCC2)c1 | – | inconclusive [inhibitor, single point] |
| CC(C)(C)OC(=O)NCCc1nnc(SCc2cccc(Cl)c2)o1 | inactive: 9.58% | – |
| COc1cc(CN2CCc3ccccc3C2)ccc1O | – | active: 2.91 µM |
| O=C(OCc1ccccc1)N(CCCCN(CCCNCc1ccccc1)C(=O)OCc1ccccc1)CCCNCc1ccccc1 | – | inconclusive [inhibitor, single point] |
